{"source": "PubChem BioAssay AID1508624", "about": "(National Center for Advancing Translational Sciences (NCATS), 2021)", "note": "The whole screen tested about 48,000 compounds, of which about 120 (0.25%) were called active. Not shown: some 4% with an inconclusive outcome. The call rests on the fitted dose curve; in most records, active means well fitted activation curve with a large enough effect; inconclusive means small, poorly fitted or top-dose-only effect, or another doubt; inactive means no such curve, though single readings can be large or run the other way. This is one part of the list. Potency means the concentration at half of the fitted maximal effect.", "data": [{"experiment": "Primary qHTS for Identification of Small Molecule Activators of Huntingtin-Antisense Promoter Activity; further: nearly all actives have a fitted effect of over 55% in size", "conditions": "HEK293 HTT-AS promoter firefly luciferase reporter, 24 h; series mostly up to 57.5 µM; activity change, positive = activation: at the top concentration", "method_in_brief": "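HEK293 Fluc reporter, 2,500 cells/well, 24 h pre-culture; cpds up to 57.5 uM final, 24 h 37 degrees C; Dual-Glo, 10 min RT; normalized vehicle = 0%, zero RLU = -100%.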", "values": [{"smiles": "O=C(NCCc1ccc(F)cc1)C(=O)NCC(c1cccs1)S(=O)(=O)c1ccc(Cl)cc1", "note": "(stereo not given)", "activity change, positive = activation": "inactive: -49.3%"}, {"smiles": "CCS(=O)(=O)N1CC(=O)N(c2ccc(Cl)cc2C)C(C)(C(=O)NC2CCCCC2)C1", "note": "(stereo not given)", "activity change, positive = activation": "inactive: -3.97%"}, {"smiles": "O=C(CSc1nnc(-c2ccccc2)c(-c2ccccc2)n1)NCCc1ccccc1", "activity change, positive = activation": "inactive: -20.4%"}, {"smiles": "Cc1ccc(C)c(N(C)C(=O)c2cc3c(s2)-c2ccccc2OC3)c1", "activity change, positive = activation": "inactive: -17.8%"}, {"smiles": "CCn1c(=O)c2cc(C(=O)NCc3ccc(F)cc3Cl)sc2c2ccccc21", "activity change, positive = activation": "inactive: -5.38%"}, {"smiles": "Cc1cc(C)c(OCC(=O)N(Cc2ccc(N(C)C)cc2)CC2CCCO2)c(C)c1", "note": "(stereo not given)", "activity change, positive = activation": "inactive: -27.9%"}, {"smiles": "Cc1cc(=O)n(CC(=O)N2CCCc3ccccc32)c2c1c(C)nn2-c1cccc(F)c1", "activity change, positive = activation": "inactive: -16.9%"}, {"smiles": "COC(=O)c1c(NC(=O)COc2ccc(C)cc2Br)sc2c1CCCC2", "activity change, positive = activation": "inactive: 28.5% [at 11.5 µM, percent change from vehicle, -100% = no light]"}, {"smiles": "Cc1cccc(NC(=O)C2CCCN(S(=O)(=O)c3ccc4c(c3)oc(=O)n4C)C2)c1C", "note": "(stereo not given)", "activity change, positive = activation": "inactive: -11.8%"}, {"smiles": "Cc1ccc(CNC(=O)CN(C)S(=O)(=O)c2ccc3c(c2)c(=O)n(C)c(=O)n3C)cc1", "activity change, positive = activation": "inactive: -9.65%"}, {"smiles": "CCOc1ccc(N(C)S(=O)(=O)c2cc(-c3cc(C)no3)ccc2OC)cc1", "activity change, positive = activation": "inactive: -43.4%"}, {"smiles": "COc1cccc(N2C(=O)C(CC(=O)Nc3ccccc3)N(CCc3sccc3C)C2=O)c1", "note": "(stereo not given)", "activity change, positive = activation": "inactive: -14.5%"}, {"smiles": "CCc1ccccc1NC(=O)CN1C(=O)C2CCCN2c2ccc(S(=O)(=O)N(CC)CC)cc21", "note": "(stereo not given)", "activity change, positive = activation": "inactive: -8.37%"}, {"smiles": "CCCCCCCCCCCCCC(=O)OC(C)C", "activity change, positive = activation": "inactive: 2.2%"}, {"smiles": "CC(O)(P(=O)(O)O)P(=O)(O)O", "activity change, positive = activation": "inactive: 1.24%"}, {"smiles": "COc1ccc(-c2c(C)nn3c(-c4ccccc4)cc(C)nc23)cc1OC", "activity change, positive = activation": "inactive: 1.46%"}, {"smiles": "O=C(Cn1ncc2c3ccccc3n(Cc3cccc(Cl)c3)c2c1=O)NCCCc1ccccc1", "activity change, positive = activation": "inactive: -13.1%"}, {"smiles": "Cc1cccc(C)c1NC(=O)Cn1cc(C(=O)c2ccco2)c2ccccc21", "activity change, positive = activation": "inactive: -21.9%"}, {"smiles": "Cc1cc(C)n(C(C)CC(=O)Nc2cccc(C#N)c2)n1", "note": "(stereo not given)", "activity change, positive = activation": "inactive: -12.3%"}, {"smiles": "CCc1nc(Nc2ccc(F)c(Cl)c2)c2c3c(sc2n1)CCCC3", "activity change, positive = activation": "inactive: -35.2%"}, {"smiles": "CCOc1ccc(-c2nn(-c3ccc(F)cc3)c3c2cnc2ccc(F)cc23)cc1", "activity change, positive = activation": "inactive: -14%"}, {"smiles": "Cc1ccc2oc(-c3ccc(Cl)cc3)c(O)c(=O)c2c1", "Potency": "active: 2510 nM"}, {"smiles": "Cc1cc(O)c(C(c2ccccc2)N2CCN(c3ccccc3)CC2)c(=O)n1Cc1ccco1", "note": "(stereo not given)", "activity change, positive = activation": "inactive: 7.79%"}, {"smiles": "Cc1cccc(N(C)C(=S)Oc2ccc3c(c2)C2CCC3C2)c1", "note": "(stereo not given)", "activity change, positive = activation": "inactive: -6.6%"}, {"smiles": "CCCN(C(=O)Cc1nc(-c2ccc(OC)cc2)no1)c1ccccc1C", "activity change, positive = activation": "inactive: -29.5%"}, {"smiles": "CCc1cccc(C)c1NC(=O)CCCn1c(C)c2cnn(-c3ccccc3)c(=O)c2c1C", "activity change, positive = activation": "inactive: -21.1%"}, {"smiles": "CCCCOC(=O)c1ccc(OC(=O)c2sc3ncn(Cc4cccc(F)c4)c(=O)c3c2C)cc1", "activity change, positive = activation": "inactive: -7.49%"}, {"smiles": "CCOC(=O)c1[nH]c(C)c(CCC(=O)Nc2ccccc2OCC)c1C", "activity change, positive = activation": "inactive: -26.6%"}, {"smiles": "CCC(C)NC(=O)Cn1c(=O)n(CCCCCC(=O)Nc2ccccc2)c(=O)c2sccc21", "note": "(stereo not given)", "activity change, positive = activation": "inactive: 11.3%"}, {"smiles": "COc1ccc(C(=O)Nc2nnc(SCc3cc(=O)c4cccc(F)c4[nH]3)s2)cc1", "activity change, positive = activation": "inactive: 2.08%"}, {"smiles": "Cn1c(=O)c2c(nc(NCCCCO)n2Cc2ccccc2Cl)n(C)c1=O", "activity change, positive = activation": "inactive: 3.73% [at 11.5 µM, percent change from vehicle, -100% = no light]"}, {"smiles": "CN1C(=O)CC(C(=O)Nc2ccc(C(=O)O)cc2)SC1=Nc1ccc(Cl)cc1", "note": "(stereo not given)", "activity change, positive = activation": "inactive: -15.2%"}, {"smiles": "Cc1ccc2c(=O)cc(C(=O)Nc3ccc(S(=O)(=O)N4CCCCC4C)cc3)oc2c1C", "note": "(stereo not given)", "activity change, positive = activation": "inactive: 4.17%"}, {"smiles": "CCN(CC)c1ccc(NS(=O)(=O)c2cc(-c3onc(C)c3C)ccc2OC)c(C)c1", "activity change, positive = activation": "inactive: -29.9%"}, {"smiles": "CCN(CC)CCCNC(=O)Cn1ncc2c3ccccc3n(Cc3ccccc3)c2c1=O", "activity change, positive = activation": "inactive: -3%"}, {"smiles": "COc1cccc(-c2nnc(SCC(=O)N(C)c3ccccc3)o2)c1", "activity change, positive = activation": "inactive: 13.9%"}, {"smiles": "COc1cc2[nH]c(=O)[nH]c(=O)c2cc1OC", "activity change, positive = activation": "inactive: -2.33%"}, {"smiles": "CC(=O)c1ccc(NC(=O)C(C)n2nc(-c3ccccc3)ccc2=O)cc1", "note": "(stereo not given)", "activity change, positive = activation": "inactive: -7.45%"}, {"smiles": "CCn1c2ccccc2c2cc(CN3CCN(Cc4ccc(Cl)cc4)CC3)ccc21", "activity change, positive = activation": "inactive: -30.5%"}, {"smiles": "COCCCNC(=O)CSc1nc2cc3c(cc2c(=O)n1CCCCCC(=O)NCCc1ccc(OC)c(OC)c1)OCO3", "activity change, positive = activation": "inactive: -2.68%"}, {"smiles": "CCc1nn2c(=O)cc(COC(=O)c3cccc(NC(=O)c4ccccc4C)c3)nc2s1", "activity change, positive = activation": "inactive: 10.7%"}, {"smiles": "COc1ccc2c(CNC3CCCC3)c(C(=O)O)n(Cc3ccccc3C)c2c1", "activity change, positive = activation": "inactive: -3.42%"}, {"smiles": "CC(C)(C)C1CCc2nc(NC(=O)COc3ccccc3[N+](=O)[O-])sc2C1", "note": "(stereo not given)", "activity change, positive = activation": "inactive: -76.5%"}, {"smiles": "CC(C)C(=O)Nc1cccc(C(F)(F)F)c1", "activity change, positive = activation": "inactive: 0.0493%"}, {"smiles": "Cc1cc(C)c2c(=O)cc(C(=O)Nc3sc4c(c3C#N)CCCC4)oc2c1", "activity change, positive = activation": "inactive: -8.2%"}, {"smiles": "O=C(NCc1ccc(F)cc1)c1ccc2c(c1)N(Cc1c(F)cccc1Cl)C(=O)CS2", "activity change, positive = activation": "inactive: -42.4%"}, {"smiles": "CC1=C(c2ccc(C)cc2)S(=O)(=O)N(Cc2ccc(C(=O)NCc3ccccc3)cc2)C1=O", "activity change, positive = activation": "inactive: -35.2%"}, {"smiles": "Cc1ccccc1NC(=O)CN1C(=O)C2(SCC(=O)N2c2ccc(F)cc2)c2ccccc21", "note": "(stereo not given)", "activity change, positive = activation": "inactive: -10.8%"}, {"smiles": "CCn1cc(C(=O)NCCc2ccc(OC)c(OC)c2)c(=O)c2cc(S(=O)(=O)N3CCOCC3)ccc21", "activity change, positive = activation": "inactive: 9.76%"}, {"smiles": "CC1CCN(S(=O)(=O)c2ccc3c(ccn3CC(=O)NCc3ccccc3F)c2)CC1", "activity change, positive = activation": "inactive: -27.2%"}, {"smiles": "COc1cccc(CNC(=O)c2ccc3c(c2)nc2n3CCOC2)c1OC", "activity change, positive = activation": "inactive: -9.68%"}, {"smiles": "Cc1ccc(C)c(NC(=O)CN2CCN(C3CCCCC3)C(=O)C2=O)c1", "activity change, positive = activation": "inactive: -0.195%"}, {"smiles": "Cc1cnc(C(=O)NCCc2ccc(S(=O)(=O)NC(=O)NC3CCCCC3)cc2)cn1", "activity change, positive = activation": "inactive"}, {"smiles": "CCc1nc2c(cnn2-c2ccc(C)cc2)c(=O)n1-c1ccc(C)cc1", "activity change, positive = activation": "inactive: -29.1%"}, {"smiles": "O=C(Nc1cccc(C(F)(F)F)c1)c1cc(-c2ccc(Cl)cc2)on1", "activity change, positive = activation": "inactive: -7.78%"}, {"smiles": "Cc1ccc(-c2noc(C(C)NC(=O)c3ccco3)n2)cc1", "note": "(stereo not given)", "activity change, positive = activation": "inactive: -23.2%"}, {"smiles": "COc1ccc(S(=O)(=O)c2c(SC)nn(CC(=O)Nc3ccc(C)c(Cl)c3)c2N)cc1", "activity change, positive = activation": "inactive: -66.1%"}, {"smiles": "Cc1cc(-c2ncc(CC(=O)Nc3ccc(-c4cnccn4)cn3)cc2C)ccn1", "activity change, positive = activation": "inactive: -23.2%"}, {"smiles": "CCOC(=O)c1[nH]c2ccccc2c1NC(=O)c1cc(OC)cc(OC)c1", "activity change, positive = activation": "inactive: -9.82%"}, {"smiles": "COc1cccc(-c2ccnc3c(-c4ccccc4)c(C)nn23)c1", "activity change, positive = activation": "inactive: 26.2%"}]}]}
